Article PMC12069340 (Frontiers in Cellular and Infection Microbiology, 2025)
Where a name gives a salt, the structure may show the parent alone. Read-outs that look alike come from different tables or passages of the source.

How the values were obtained:
[1] = test system: influenza virus A/PuertoRico/8/1934 (H1N1); test: organism not typed; settings: MDCK, read-out: IC50 (µM) MDCK
[2] = test system: influenza virus A/PuertoRico/8/1934 (H1N1)
influenza virus PR8 = type: cell-based, influenza A virus
[3] = test system: influenza virus A/PuertoRico/8/1934 (H1N1); test: organism not typed; type: cell-based; settings: A549, read-out: IC50 (µM) A549
[4] = test system: influenza virus A/PuertoRico/8/1934

Compound | IC50 [1] [µM] | SI MDCK [2] | attachment of influenza virus to A549 cells (influenza virus PR8) | IC50 [3] [µM] | reduction of influenza virus infectivity by direct treatment [4]
O=C(c1ccc(OCCCc2cnc[nH]2)cc1)C1CC1 [Ciproxifan] | 59.4 | >7 | did not affect the attachment | 6.3 | 
CC(COc1ccccc1)NC(C)C(O)c1ccc(O)cc1 (stereo not shown) [Isoxsuprine, Isoxsuprine hydrochloride] | 36.3 | >11 | did not affect the attachment | 4.9 | 
CCCN(CCc1cccs1)[C@H]1CCc2c(O)cccc2C1 [Rotigotine] | 8.1 | 11 | did not affect the attachment | 14.7 | 
Tannic acid |  |  |  |  | substantial decrease in viral infectivity of over one log unit
